Experimental data: publication PMC5836133
Some of the results follow. At the low end of the ranking the order means little.
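Also: rank-based score ranging −0.5 to +0.5 with E above 0.45 taken as significant binding.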

What follows are sequences tested on T1, GST-NbGlk1(82-244) (assay: protein-binding microarray). Conditions: NbGlk1 is a Golden2-like transcription factor of Nicotiana benthamiana; high values mean tight binding; most listed sequences are background and not binding sites; double strand, one strand shown.
T1 sequence: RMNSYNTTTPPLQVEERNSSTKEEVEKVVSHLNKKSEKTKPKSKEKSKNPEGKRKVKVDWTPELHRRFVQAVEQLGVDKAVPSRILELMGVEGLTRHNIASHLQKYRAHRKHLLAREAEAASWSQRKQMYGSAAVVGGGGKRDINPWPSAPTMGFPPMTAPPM
Sequence AGCAGCTC has a binding signal of -0.252 E-score. AATGCTCA showed a binding signal of -0.119 E-score. With AGCCTTCG the binding signal was -0.24 E-score. ACGAAGAG gave a binding signal of -0.0447 E-score. Sequence AGTGCCAG has a binding signal of -0.294 E-score. With AAACCCTG the binding signal was -0.141 E-score. In the case of AGGTCATG, the binding signal is reported as -0.188 E-score. In the case of AGATGCCT, the binding signal is reported as -0.193 E-score. AACGTGTC gave a binding signal of -0.15 E-score. In the case of ACCCTGCA, the binding signal is reported as -0.123 E-score. ATAAGGAG gave a binding signal of -0.00378 E-score. With AATGCAGG the binding signal was 0.087 E-score. With ATAGCAAG the binding signal was 0.00852 E-score. With AGTACGAC the binding signal was -0.00697 E-score. In the case of ATATTCGC, the binding signal is reported as 0.321 E-score. ACCACCAA gave a binding signal of -0.0665 E-score. ACTTCCAT was tested, and the binding signal was -0.0677 E-score. In the case of ATCAACGC, the binding signal is reported as 0.098 E-score. AGTAAGAT showed a binding signal of 0.231 E-score. With ATGGTACA the binding signal was -0.0426 E-score. AGTCGTAA was tested, and the binding signal was 0.00338 E-score. AGGTGCGG was tested, and the binding signal was -0.133 E-score. For AAAAATGT, the binding signal was -0.0222 E-score. Work on AAAACAAG yielded a binding signal of -0.0222 E-score. In the case of ATGTAACC, the binding signal is reported as -0.05 E-score. AACTCAAA was tested, and the binding signal was 0.0356 E-score. AGGTCCAG gave a binding signal of -0.273 E-score. AGCCCGAC showed a binding signal of -0.255 E-score. With ACTTAAGA the binding signal was 0.00253 E-score. For AGACATCG, the binding signal was -0.0258 E-score. AAAAGTAG gave a binding signal of -0.0147 E-score. AAGACCAA was tested, and the binding signal was -0.0908 E-score. Work on AAGTCGGG yielded a binding signal of -0.168 E-score. AAATTCTC was tested, and the binding signal was 0.283 E-score. AATTTAGC gave a binding signal of 0.102 E-score. AAAGGCTC gave a binding signal of -0.269 E-score. For CAAGTATC, the binding signal was 0.147 E-score. Sequence AGACTGTC has a binding signal of -0.116 E-score. With AGTAGAGG the binding signal was -0.172 E-score. AGGGAGTC was tested, and the binding signal was -0.269 E-score. In the case of CACATAAA, the binding signal is reported as 0.0365 E-score. Work on ATCCGTTG yielded a binding signal of 0.233 E-score. ATGCTGTC showed a binding signal of -0.0341 E-score. Work on ATATGCTG yielded a binding signal of 0.258 E-score. Work on AAACTGCT yielded a binding signal of -0.23 E-score. For AGAGTAGG, the binding signal was -0.149 E-score. AATATAAT was tested, and the binding signal was 0.19 E-score. ATCCACTC showed a binding signal of 0.228 E-score. Work on AACCTCGT yielded a binding signal of -0.163 E-score. AACGTTAG gave a binding signal of -0.0826 E-score. For AGGAATCA, the binding signal was 0.32 E-score. For AACCGTTC, the binding signal was -0.145 E-score. ATACCCAC gave a binding signal of 0.148 E-score. ACCTGAGA showed a binding signal of 0.00332 E-score. AGTACTGG showed a binding signal of -0.0797 E-score. With AGTAGAAA the binding signal was 0.141 E-score. With ACACAAGA the binding signal was 0.0536 E-score. Work on ACAAACCG yielded a binding signal of -0.0186 E-score. AGACCCAA was tested, and the binding signal was -0.167 E-score. In the case of CAAATTTA, the binding signal is reported as 0.0333 E-score. ATGGGTTG showed a binding signal of -0.188 E-score. For AGTATGTC, the binding signal was -0.183 E-score. ACCAGTAT was tested, and the binding signal was 0.102 E-score. For ACGTTTCC, the binding signal was 0.0502 E-score. ACGTGACC was tested, and the binding signal was -0.199 E-score. AAGTCAAC was tested, and the binding signal was -0.159 E-score. Sequence ATCTCCAG has a binding signal of 0.293 E-score. AGAGCGTC showed a binding signal of -0.225 E-score. AGGTAAGC was tested, and the binding signal was 0.0148 E-score. With ACTTTCTA the binding signal was 0.0537 E-score. Work on AAACCAAT yielded a binding signal of 0.014 E-score. Work on AGGGCTCC yielded a binding signal of -0.296 E-score. With AACTCTCT the binding signal was -0.165 E-score. ATTTTTTA gave a binding signal of 0.264 E-score. In the case of AGTTTGGC, the binding signal is reported as -0.224 E-score. AGATCGAT was tested, and the binding signal was 0.234 E-score. AATGGAGG gave a binding signal of -0.123 E-score. CAAGTACG gave a binding signal of -0.00956 E-score. AATGCTCT gave a binding signal of -0.224 E-score. Sequence ACCGCAGA has a binding signal of 0.0344 E-score. AGAGCAAA was tested, and the binding signal was -0.072 E-score. In the case of ACTGACCA, the binding signal is reported as -0.0421 E-score. ATATCGGG showed a binding signal of 0.343 E-score. Sequence AGAAAGTG has a binding signal of 0.0661 E-score. For CACCAGAA, the binding signal was -0.13 E-score. AGCTGTAG showed a binding signal of -0.0496 E-score. ACATCTCG showed a binding signal of -0.0226 E-score. Work on ACCACTAA yielded a binding signal of 0.0835 E-score. ATGGCACC was tested, and the binding signal was -0.203 E-score. For AAAAGCTT, the binding signal was 0.0448 E-score. For CACTTGCA, the binding signal was -0.185 E-score. With ACTCAGTA the binding signal was 0.0652 E-score. Sequence ACATCGTC has a binding signal of -0.0707 E-score. ACTAGTAT was tested, and the binding signal was 0.131 E-score. Sequence AACACTAA has a binding signal of 0.137 E-score. With ATGTCAAG the binding signal was -0.0327 E-score. In the case of ACGCCCTG, the binding signal is reported as -0.267 E-score. Sequence AATTCACT has a binding signal of 0.00975 E-score. In the case of AGCTTGTA, the binding signal is reported as -0.0543 E-score. Sequence AGCCCGAA has a binding signal of -0.149 E-score. ACCTTTAC was tested, and the binding signal was 0.0219 E-score. ATAATTTA showed a binding signal of 0.173 E-score. ACAGTTTC was tested, and the binding signal was -0.0737 E-score. CAGACACG showed a binding signal of -0.148 E-score. Work on AGTCTACG yielded a binding signal of -0.216 E-score. AAGCGAAT was tested, and the binding signal was 0.291 E-score. Sequence ATCCTTGA has a binding signal of 0.218 E-score. Sequence AGACCCCA has a binding signal of -0.264 E-score. Work on ATCTCGCG yielded a binding signal of 0.333 E-score. Work on AGATCTCC yielded a binding signal of 0.441 E-score.
